Results on 85 compounds are retold here after ChEMBL document CHEMBL4888484, “Replenishing the malaria drug discovery pipeline: Screening and hit evaluation of the MMV Hit Generation Library 1 (HGL1) against asexual blood stage Plasmodium falciparum ,using a nano luciferase reporter read-out” (2022).

Among all 150,000 compounds or so, about 540 (0.36%) showed an effect of 50% or more. The list shows a part of the results.

The assay concerns Plasmodium falciparum. As to the kind of experiment: Primary screen in NF54 nanoGlo assay, in single point, at 2uM, 72h; a lower Z score goes with more inhibition. Format: functional, Erythrocyte. Particulars: timepoint 72 hour.
For the compound `CCC(Cc1ccc(C(F)(F)F)cc1)C(=O)NC1CCOC(C)C1` (stereo not given), the % Inhibition (in general, the drop in the measured response relative to a control, in per cent) is given as -22% and the Z score is reported as 3.73.
Turning to `COc1ccc(CS(C)(=O)=O)cc1NC(=O)C1Cc2ccccc2C1`, the “% Inhibition” value is -1% and the Z score is recorded as 0.13.
For `CCc1cc(C(=O)N2CCN(S(=O)(=O)N3CCN(C)CC3)CC2)ccc1O`, the “% Inhibition” value is -14% and the Z score is 2.78.
The corresponding values for `Cn1c2cn(-c3cccc(O)c3)c(-c3ccc(Cl)cc3)c2c(=O)n1-c1ccccc1` are -6% and 0.73.
Consider `O=C(c1ccc(=O)[nH]c1)N1CCN(C[C@@H](O)Cc2ccccc2)CC1`, for which the “% Inhibition” value is on record as -3% and the Z score is reported as 0.62.
Take `CN(Cc1cnc2ccccc2c1)C(=O)CCCS(N)(=O)=O`: the “% Inhibition” value was determined as 3% and the Z score is reported as -0.52.
With `CN(C(=O)Nc1ccncc1)C1CCN(c2ccccn2)CC1`, the “% Inhibition” value was 2% and the Z score is recorded as -0.19.
`O=C(Cc1cccnc1)N[C@H]1CCCc2sccc21`: the “% Inhibition” value was -8% and the Z score was found to be 1.1.
With `O=C(N[C@@H]1COCC[C@@H]1OCCO)c1cc(F)c(F)c(F)c1`, the “% Inhibition” value was determined as 0% and the Z score was 0.04.
On to `c1ccc(OCCN2CCOC3(CCCC3)C2)cc1`, for which the “% Inhibition” value is listed as -11% and the Z score was 1.41.
On the same counts, the results for `CNC(=O)[C@H]1CCN(C(=O)Nc2ccc(-c3ccccc3F)nn2)C1` are -1% and 0.09.
As to `CCCc1nc(C)cc(NC[C@H]2CCCN(S(C)(=O)=O)C2)n1`, the “% Inhibition” value was determined as 1% and the Z score was -0.24.
On the same counts, the results for `CCN1CCN(CC(=O)N2N=C(c3ccc(C)cc3)C[C@H]2c2ccc(C)cc2)CC1` are 11% and -1.38.
On to `CCOCC(=O)Nc1nnc(CCCc2ccccc2)s1`, for which the “% Inhibition” value was -2% and the Z score came out at 0.3.
In the case of `COc1ccccc1N(CC(=O)NCc1cccs1)S(=O)(=O)c1ccccc1C(F)(F)F`, the “% Inhibition” value was -1% and the Z score came out at 0.13.
Regarding `COc1ccc(CNC(=O)C2CCN(c3cc4c(nn3)CCC4)CC2)c(OC)c1`, the “% Inhibition” value is recorded as 6% and the Z score is given as -0.78.
The corresponding values for `CC(C)NC(=O)[C@H](Cc1ccccc1)NC(=O)N1CC(=O)Nc2ccccc21` are 1% and -0.1.
Consider `O=C(N[C@H]1Cc2ccccc2NC1=O)c1cccs1`, for which the “% Inhibition” value is -8% and the Z score is recorded as 1.31.
The corresponding values for `O=C(NC1CCN(c2nccn3cnnc23)C1)C1CC(=O)N(c2ccccc2)C1` (stereo not given) are -16% and 2.01.
On the same counts, the results for `CC(C)(C)OC(=O)NCc1cccc(NCc2cscn2)c1` are -1% and 0.14.
The corresponding values for `COc1cccc(Nc2cc(C(=O)N3CCCCC3)nc3ccc(C)cc23)c1` are 3% and -0.3.
Take `CN(CCc1ccc(Br)cc1)C(=O)NCc1cccnc1`: the “% Inhibition” value is on record as -6% and the Z score is 1.
The corresponding values for `c1nc(CNc2ccc(Cc3nnc4n3CCCCC4)cc2)cs1` are -9% and 1.07.
Turning to `COc1cccc(-c2nn(-c3nc(-c4ccccc4)cc(C(F)(F)F)n3)c(-c3cccc(OC)c3)c2Cl)c1`, the “% Inhibition” value was 38% and the Z score is -3.81.
As to `CS(=O)(=O)c1ccc(C(=O)N2CC[C@H]3CC[C@H](O)[C@H]32)cc1`, the “% Inhibition” value is recorded as -5% and the Z score is listed as 0.5.
For `Cc1nn(C)c(C)c1S(=O)(=O)N1C[C@@H]2[C@H]3CC[C@H](CC3)[C@@H]2C1`, the “% Inhibition” value is 4% and the Z score is on record as -0.81.
Consider `CCn1nc(C)c(CN2CCC(CNC(=O)[C@H]3CCOC3)CC2)c1C`, for which the “% Inhibition” value is -7% and the Z score turned out to be 0.71.
Take `Cc1nsc(C)c1C(=O)N1CCC(C)C(n2ccnc2)C1` (stereo not given): the “% Inhibition” value was -8% and the Z score is reported as 0.96.
As to `N#Cc1c2n(c(=O)n(C[C@H](O)COc3ccccc3)c1=O)CCC2`, the “% Inhibition” value is listed as -26% and the Z score is on record as 2.39.
Consider `CCc1ccc(O)c(C(=O)N[C@@H](C)Cn2cncn2)c1`, for which the “% Inhibition” value is recorded as -12% and the Z score came out at 1.18.
For the compound `CCc1onc(C)c1CN[C@H](c1cnn(C)c1)C1(CO)CCC1`, the “% Inhibition” value is on record as -8% and the Z score came out at 1.53.
`CO[C@@H](CNC(=O)NC(C)C)c1ccccc1Cl`: the “% Inhibition” value was 20% and the Z score is on record as -2.57.
In the case of `CCCCN1CCN([C@@H](C(=O)N2CCNC(=O)CC2)c2ccccc2)C(=O)C1=O`, the “% Inhibition” value is -11% and the Z score was determined as 2.13.
On the same counts, the results for `C[C@@H](CC#N)N1CCC(c2ccsc2)CC1` are -2% and 0.3.
Take `CCN(CC)[C@@H](CNc1ccc2nnc(C3CC3)n2n1)c1ccco1`: the “% Inhibition” value is 4% and the Z score is given as -0.56.
The corresponding values for `Cc1cccc(N2CCN3c4cc(Cl)ccc4CC4(C(=O)CCCC4=O)[C@@H]3C2)c1C` are -2% and 0.35.
For `C[C@H]1COCCN1C(=O)NCCc1csc(N2CCCC2)n1`, the “% Inhibition” value stood at 4% and the Z score is reported as -0.3.
Take `Cc1csc(C(=O)NC2CC(O)C(CO)C2)c1` (stereo not given): the “% Inhibition” value was -1% and the Z score is 0.19.
Take `Cc1ccc(C)c(S(=O)(=O)NCCNc2ccc(Nc3ccncc3)nn2)c1`: the “% Inhibition” value is reported as 47% and the Z score is recorded as -2.68.
The corresponding values for `O=C(CN1CCC(c2ccccn2)CC1)NCC1CC1` are 2% and -0.43.
The corresponding values for `Cc1noc([C@]23CN(CCO)CC[C@H]2CN(CCc2ccccc2)C3)n1` are -1% and 0.2.
Take `COC(=O)[C@@H]1CN(c2nc3c(s2)c(C)nn3C)CCN1C`: the “% Inhibition” value is on record as -14% and the Z score is reported as 2.55.
`O=C(CCc1nnc(Cc2cccc(C(F)(F)F)c2)o1)NCc1ccccc1`: the “% Inhibition” value is given as -4% and the Z score worked out at 0.49.
Turning to `CC(C)n1nccc1[C@H]1OCC[C@@H]1NC(=O)C(C)n1cnc2c(N)ncnc21` (stereo not given in full), the “% Inhibition” value is listed as 2% and the Z score is -0.27.
In the case of `CCn1ncnc1[C@@H](Nc1nccc(C)n1)C1CC1`, the “% Inhibition” value is 14% and the Z score was -1.78.
As for `CC(C)(C)n1ncnc1NC(=O)NC1CCCC1`, the “% Inhibition” value was -6% and the Z score is reported as 0.92.
As to `Cn1cc(-c2ncc(C(=O)N3CCC(c4ccnn4C)CC3)s2)cn1`, the “% Inhibition” value is on record as -4% and the Z score stood at 0.72.
On to `COc1ccc([C@H]2CC(=O)Nc3ncn(-c4ccc(C(F)(F)F)cc4)c32)cc1O`, for which the “% Inhibition” value stood at 5% and the Z score is recorded as -0.57.
On the same counts, the results for `CNC(=O)c1ccc(Cn2ccnc2-c2ncc[nH]2)cc1` are -3% and 0.59.
For the compound `COc1c(C(=O)NC2CCC(O)(c3cccc(F)c3)CC2)cnn1C` (stereo not given), the “% Inhibition” value is 5% and the Z score is listed as -0.88.
The corresponding values for `CC(=O)N1CCC([C@@H]2CN(Cc3cc(F)c(F)cc3F)C[C@H]2CO)CC1` are -8% and 0.93.
As to `O=C(O)c1cccnc1N1CCN(Cc2ccc(F)c(F)c2)[C@@H](CCO)C1`, the “% Inhibition” value is listed as -12% and the Z score was 1.2.
On to `C[C@H]1CCc2sc(C(=O)N3CCC(c4ccnc(N)n4)CC3)cc2C1`, for which the “% Inhibition” value is recorded as 10% and the Z score was -1.31.
As to `C[C@H]1CN(Cc2ccc(OCCCn3ccnc3)cc2)CCCO1`, the “% Inhibition” value is -13% and the Z score worked out at 1.38.
As for `Cc1cccc(C(=O)NCCc2cccs2)n1`, the “% Inhibition” value stood at 9% and the Z score is on record as -1.02.
For `Cc1ccccc1C(NS(=O)(=O)CC1CCCCO1)C1CC1` (stereo not given), the “% Inhibition” value is 0% and the Z score was -0.03.
In the case of `CC(=O)/C(=N/Nc1ccc(Cl)cc1)Nc1ccc(Br)cc1`, the “% Inhibition” value was -11% and the Z score worked out at 1.54.
Turning to `CCC(=O)N1CCN(C(=O)c2ccn(C)c(=O)c2)C1`, the “% Inhibition” value is 5% and the Z score is on record as -0.58.
As to `Cc1nn(C)c(C)c1CN1CC(C)C1C` (stereo not given), the “% Inhibition” value was -12% and the Z score is on record as 1.16.
Turning to `CCc1ccc([C@@H](NCC(=O)N2CCNC2=O)C(C)(C)C)o1`, the “% Inhibition” value was 4% and the Z score is on record as -0.59.
For the compound `CC(C)(CO)NC(=O)[C@H]1CCN(c2ccccc2F)C1`, the “% Inhibition” value is on record as -6% and the Z score is given as 0.92.
For `Cc1noc(C)c1CCC(=O)N1CCC[C@H](Oc2cccnn2)C1`, the “% Inhibition” value stood at 12% and the Z score was -1.42.
Take `O=C(c1ccc(F)cc1Cl)N1C2CCC1CC(n1ccnc1)C2` (stereo not given): the “% Inhibition” value was -8% and the Z score was determined as 0.96.
Take `CC(C)n1ccc(NC(=O)N2CCN(C(=O)Cc3ccccc3)CC2)n1`: the “% Inhibition” value is given as -17% and the Z score was 3.01.
`CCNC(=O)c1nc(C(=O)NCc2ccco2)cs1`: the “% Inhibition” value is given as 29% and the Z score is given as -4.22.
For `CCOc1ncccc1C(=O)Nc1cc(S(=O)(=O)N2CCOCC2)ccc1N1CCCC1`, the “% Inhibition” value is -14% and the Z score was found to be 1.88.
Turning to `Cc1cc(C)nc(/C=C/NC(=O)c2ccco2)c1`, the “% Inhibition” value is listed as -4% and the Z score was 0.74.
Take `CCc1noc([C@H](C)n2ccnc2-c2cnc(-c3ccco3)nc2)n1`: the “% Inhibition” value was -7% and the Z score was 0.72.
With `Cc1nc(-c2c(-c3ccccc3)ncn2CC2(CO)CCOCC2)c[nH]1`, the “% Inhibition” value is on record as -8% and the Z score was determined as 1.42.
On the same counts, the results for `CC[C@H](NS(C)(=O)=O)c1ccc(C)c(C)c1` are -7% and 1.
Take `O=C(CCC(F)(F)F)N1CCC2(CCC(=O)N(Cc3ccncc3)C2)CC1`: the “% Inhibition” value is -13% and the Z score is recorded as 2.17.
`O=S(=O)(c1ccc(F)c(Cl)c1)N1CC(n2nccn2)C1`: the “% Inhibition” value worked out at 5% and the Z score is on record as -0.93.
As to `Cc1cccc(N2CC[C@@H](C(=O)NCCc3ccccc3)C2=O)c1C`, the “% Inhibition” value is listed as -2% and the Z score amounted to 0.18.
Turning to `CCCCN(C)S(=O)(=O)Nc1ccccc1OC`, the “% Inhibition” value is listed as -9% and the Z score is reported as 1.37.
With `CCOc1ccccc1NC(=O)CC(=O)N[C@H](c1ccncc1)c1ccc(C)cc1`, the “% Inhibition” value is 17% and the Z score was -2.28.
As to `COCCNC(=O)[C@H]1C[C@H](Oc2ccccc2)CN1Cc1ccncc1`, the “% Inhibition” value is -11% and the Z score was determined as 2.1.
On the same counts, the results for `CN(C)C(=O)NCc1cc2n(n1)CCN(c1nc(N)nc3[nH]ncc13)C2` are -7% and 0.92.
On the same counts, the results for `Cc1c(C(=O)N2CCO[C@H](c3ncon3)C2)oc2c(Cl)cccc12` are -11% and 1.1.
Turning to `CCn1ccc(C(=O)N2CC[C@H]2c2cccc(OC)c2)cc1=O`, the “% Inhibition” value was -3% and the Z score stood at 0.48.
As to `O=C(NCc1cc(C2CC2)ncn1)c1cccnc1`, the “% Inhibition” value is on record as 13% and the Z score is -1.67.
The corresponding values for `O=C(Nc1ccc2c(c1)OCO2)NC1CCCCCC1` are 1% and -0.19.
For the compound `O=C(NC1CCc2nccn2C1)C1CC1c1c(F)cccc1F` (stereo not given), the “% Inhibition” value is given as -10% and the Z score turned out to be 1.3.
For the compound `O=C(NCCCc1ccccc1)c1ccc(CN2CC(=O)N3CCCC[C@H]3C2=O)cc1`, the “% Inhibition” value is reported as -8% and the Z score came to 1.06.
In the case of `CCOc1cccc(CCNC(=O)N2CCS(=O)(=O)C[C@@H]2C)c1`, the “% Inhibition” value is recorded as 2% and the Z score is -0.33.
As to `O=C(NC1CCCC1)N1CCCCC[C@@H]1CN1CCCC1`, the “% Inhibition” value is -1% and the Z score is 0.16.
